# In paper PMC12136788:
# This is one part of the list.
# B1: chrX:27979534:27981334:-|CDS|ENSG00000226372|control|control|control (ssRNA)
# RNA: GGGAGUUCUACAGUCCGACGAUCAGAUAUAGUAAACUGUCUUGAACCCCACCCUUACCUACCUGUGUUGGCGACCAGUGGCCUAGAUCAGCAUGUCAGGAUCUGGACACCCACAGCUAAAACUGCCACUGAGCUUACUGGGUUCAACAGAGGAUUGAGCAUCA
# B2: chr5:40568104:40569403:-|three_prime_utr|ENSG00000113638|control|control|control (ssRNA)
# RNA: GGGAGUUCUACAGUCCGACGAUCGCGUGAGACACCAUGCUCAGUCCUUAACAUCUUUCAAGGGAUGUGAUUCUUUGUGGCAGUAGAAAGGUGCUUUUGAAUUCCUGGAUCCUCUUUUAAACACUAUCAAAUUAGAAUAUACUUCAACAGAGGAUUGAGCAUCA
# B3: chr22:46255662:46256560:-|three_prime_utr|ENSG00000130943|control|control|control (ssRNA)
# RNA: GGGAGUUCUACAGUCCGACGAUCGUUUCAUGAGUCACAAGCAAGCGUUCCCCCAACUGCUGAGUCUGUGGGAUUAAGGGGAUUAGGGAGUGUCAGUGGCCUAGUCAUGCUUUCUACUCAUGUCCUUCACAAGGCACAUCCCCUCAACAGAGGAUUGAGCAUCA
# B4: chrX:155122998:155123099:+|3pUTR|ENSG00000185515|unk|FALSE|unique (ssRNA)
# RNA: GGGAGUUCUACAGUCCGACGAUCCUACAUACACACAAAUGAAUGCAUGUAAAAUCUGGUGAUACUGAAUAAAGUCUGUGGUCUAGAUAGCAGUAUAAUAUUAUUGUCAAUGUCUUGGAUGUGAAGUUGUGCUAUAGUUACAAACAACAGAGGAUUGAGCAUCA
# B5: chr17:35854954:35855410:-|three_prime_utr|ENSG00000270379|control|control|control (ssRNA)
# RNA: GGGAGUUCUACAGUCCGACGAUCUCAAGACUUUCGACUUGCAAAGCUGAACCCCUUGUUUAUUGCAAAGUCCAUCACCAAAGUAGGCCAAAAGAAAACGCCUGCUUUCCCACCGUGCUGCUCGAAACCACGAAAACAUAGGCCCAACAGAGGAUUGAGCAUCA
# B6: chr1:24840999:24841100:+|3pUTR|ENSG00000169504|msi1|FALSE|bound_elsewhere (ssRNA)
# RNA: GGGAGUUCUACAGUCCGACGAUCGCUACUCCUUCCUGUAGAGCAGAAAUUGUAUUUUGCACGAACAUGCAGUUAUUGAAGAUUAGGAUCAAGGAUAGACAAGGUAUAGUAGUUAUCUUAAAAUAUACACUCCUAAGCAGUAUUCAACAGAGGAUUGAGCAUCA
# B7: chr4:57031156:57031257:-|3pUTR|ENSG00000163453|msi1|FALSE|unique (ssRNA)
# RNA: GGGAGUUCUACAGUCCGACGAUCAUAACUACAUUACCUGUUCUUGCCUAAUAAGUUUCUUUUAAUCCAAUCCACUAACACUUUAGUUAUAUUCACUGGUUUUACACAGAGAAAUACAAAAUAAAGAUCACACAUCAAGACUAUCAACAGAGGAUUGAGCAUCA
# B8: chr4:159352722:159352837:+|CDS|ENSG00000109756|unk|FALSE|unique (ssRNA)
# RNA: GGGAGUUCUACAGUCCGACGAUCACUGUGGAUAAUUUUUCAGAUUCUGGUCACAGUGAAAUUUCUUCACGAUCCAGUAUUGUUAGCAAUUCGUCUUUUGACUCAGUGCCAGUCUCACUGCACGAUGAGAGGCGCCAGAGGCAUCAACAGAGGAUUGAGCAUCA
# B9: chr14:106373662:106373964:-|CDS|ENSG00000211956|control|control|control (ssRNA)
# RNA: GGGAGUUCUACAGUCCGACGAUCCAAUCAUAGUGGAAGCACCAACUACAACCCGUCCCUCAAGAGUCGAGUCACCAUAUCAGUAGACACGUCCAAGAACCAGUUCUCCCUGAAGCUGAGCUCUGUGACCGCCGCGGACACGGCCAACAGAGGAUUGAGCAUCA
# B10: chr8:41262032:41262394:-|3pUTR|ENSG00000104332|msi1|FALSE|unique (ssRNA)
# RNA: GGGAGUUCUACAGUCCGACGAUCGGCCGUUCUGACCUGUUGCCAGCAGAUACACAGGACAUGGAUGAAAUUCCCGUUUCCUCUAGUUUCUUCCUGUAGUACUCCUCUUUUAGAUCCUAAGUCUCUUACAAAAGCUUUGAAUACCAACAGAGGAUUGAGCAUCA
# B11: chr3:129431351:129431457:-|3pUTR|ENSG00000129071|unk|FALSE|unique (ssRNA)
# RNA: GGGAGUUCUACAGUCCGACGAUCACUUCAAAAAAGCUUAAUUAAGUACAACCAACCACCUUUCCAGCCAUAGAGAUUUUAAUUAGCCCAACUAGAAGCCUAGUGUGUGUGCUUUCUUAAUGUGUGUGCCAAUGGUGGAUCUUUCAACAGAGGAUUGAGCAUCA
# B12: chr4:69204429:69204649:-|CDS|ENSG00000213759|control|control|control (ssRNA)
# RNA: GGGAGUUCUACAGUCCGACGAUCCCAUUGUUUUUUGAUCAACCUGAUAACAUUGCUCACAUGAAGGCCAAGGGAGCAGCUGUUAGAUUGGACUUCAACACAAUGUCGAGUACAGACCUGCUGAAUGCACUGAAGACAGUAAUUCAACAGAGGAUUGAGCAUCA
# B13: ENSG00000136451:be:win_1001|CDS|ENSG00000136451|bound_else_gene|NA|bound_elsewhere_windowed (ssRNA)
# RNA: GGGAGUUCUACAGUCCGACGAUCACCAAAAGCAGCAGCAGCAGCAGCAGCAGCAGCAGCAGCAGCAGCAACAACAACAACAACAACAUGUGACAAGCUGGCCAGGGAAGCAAGUAGAAACACUGAGACUGUGGGAAGAAGCUGCAACAGAGGAUUGAGCAUCA
# B14: ENSG00000119522:stop:overlap|stop_codon|ENSG00000119522|stop_codon|NA|stop_codon (ssRNA)
# RNA: GGGAGUUCUACAGUCCGACGAUCUGGGCGAGUACGCUGGCAGUGACAAACUGUACCAUCAGUGGCUCUCCACUGUCCGGAUUUAGAUGUUAAGGAAGGCAGCCUACCAGAGAGAUUUAAAAAAACACCACAGAAAACCAAGGACAACAGAGGAUUGAGCAUCA
# Molecular target: MSI1 full-length (mouse, UniProt Q61474 1-362)
# Chain of UniProt Q61474 (Q61474 whole entry): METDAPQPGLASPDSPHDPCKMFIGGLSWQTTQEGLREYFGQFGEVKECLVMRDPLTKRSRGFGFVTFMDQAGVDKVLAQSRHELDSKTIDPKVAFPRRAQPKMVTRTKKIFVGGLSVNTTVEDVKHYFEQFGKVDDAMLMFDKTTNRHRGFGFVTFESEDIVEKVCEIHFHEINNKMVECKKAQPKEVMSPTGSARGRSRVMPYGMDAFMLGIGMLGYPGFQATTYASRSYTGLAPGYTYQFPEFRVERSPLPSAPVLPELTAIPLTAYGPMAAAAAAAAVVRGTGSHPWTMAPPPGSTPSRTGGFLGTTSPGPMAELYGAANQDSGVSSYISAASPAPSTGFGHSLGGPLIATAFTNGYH
# Test: nsRBNS (natural sequence RNA bind-n-seq); RBNS binding buffer (assumed for nsRBNS): 25 mM Tris pH 7.5, 150 mM KCl, 3 mM MgCl2, 0.01% Triton X-100, 500 ug/ml BSA, 20 U/ml SUPERase-In, 4 C; UNK is unkempt and MSI1 is Musashi-1; names of the RNAs are library labels; protein concentration not given here; high values mean tight binding
row,Binder,binding signal
1,B1,1.31 enrichment R
2,B2,1.73 enrichment R
3,B3,0.407 enrichment R
4,B4,2.09 enrichment R
5,B5,0.372 enrichment R
6,B6,5.57 enrichment R
7,B7,4.29 enrichment R
8,B8,0.234 enrichment R
9,B9,0.795 enrichment R
10,B10,1.86 enrichment R
11,B11,9.08 enrichment R
12,B12,0.341 enrichment R
13,B13,0.597 enrichment R
14,B14,0.799 enrichment R
